Whole data set: some 81,000 sequences, median “one-hybrid fitness for binding parS DNA” near -0.17, cut for the highest 2% near 0.51. The list shows a part of the results.
B1: Caulobacter ParB omega fusion; a variant is named by its letters at X, in order, B8GW30 (parent)
chain: MESVVVGEPGMSEGRRGLGRGLSALLGEVDAAPAQAPGEQLGGSREAPIEILQRNPDQPRRTFREEDLEDLSNSIREKGVLQPILVRPSPDTAGEYQIVAGERAWRAAQRAGLKTVPIMVRELDDLAVLEIGIIENVQRADLNVLEEALSYKVLMEKFERTQENIAQTIGKSXSHVANXMRLLXLPDEVQSYLVSGELTAXHARAIAAAADPVALAKQIIEGGLSVRETEALARKAPNLSAGKSKGGRPPRVKDTDTQALESDLSSVLGLDVSIDHRGSTGTLTITYATLEQLDDLCNRLTRGI

Variants of: B1
Assay: one-hybrid fitness for binding parS DNA (scaled: cognate 1, non-cognate 0); higher = stronger binding
Conditions: with parS DNA site
In short: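 Caulobacter ParB libraries with four specificity codons randomised were screened by bacterial one-hybrid selection in the E. coli USO strain, using a HIS3 reporter whose site lies 19 bp from the promoter. Selection ran for 48 hours at 37°C on M9 lacking histidine, with 0.1 mM IPTG and 5 mM 3-AT. Plasmids were Illumina-sequenced before and after selection, three replicate libraries were pooled, and variants with under 10 reads were dropped. Fitness is the log change in each variant's read ratio to wild type, rescaled against the cognate and non-cognate sites.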

one-hybrid fitness for binding parS DNA, 0.563:
RADA

one-hybrid fitness for binding parS DNA, 0.317:
RTHM

one-hybrid fitness for binding parS DNA, 0.916:
RVAT

one-hybrid fitness for binding parS DNA, ≤ 0.2:
PPQN
AGKG
NAKR
QEHA
AKGD
ERKH
KTRW
SVEL
TGPP
ARKC
YKST
LLNG
TYQS
DVGA
SFVF
HTDT
NPWR
RDGL
WVSG
PKSK
QYAH
FRAP
STRH
TNKA
FMSC
MCNV
WAMC
TAPQ
SFDS
IAQI
QYAR
RDAK
KYGT
LDDA
LGAL
VTCF
YGPE
QANR
GTHG
ALNI
ESMM
NVVT
LAHD
PELM
TGSH
LDNR
YPYT
MAVI
WRTV
EFRV
QGQT
NKMC
EMNC
SQEG
IGHR
THKR
VELT
TLML
VNKC
CPAL
SRWL
CQKG
LKNE
HNFL
NAPC
CPVD
TQMF
RVME
GNGC
TVFN
MISS
QTVS
FHRI
LAFV
KDGG
HPKM
SFFA
VSNR
FAPS
LGTC
ADVS
QIAV
LLRM
LHHN
KSIS
TTWF
HQQC
MAFF
DYSI
ITHA
AVMT
GIWG
KTQR
RPEF
LSGR
YNKM
CRDD
THET
LHLN
SQQD
TVRN
VKPR
CVYC
LGHD
QKEP
ITKS
QHHF
SFRM
GKVY
LCYT
SGRY
NEPR
LSPA
ARVF
TQSL
HQSM
IYLN
CGSR
TWYT
SSDW
RNNE
SCGC
TMGY
EDTS
TRKN
KFAP
CKQR
IDKT
RQIV
KHML
DAHR
RVQP
PLCE
SLAR
QQDP
IMGS
KFQG
ISTM
NMTH
DDTS
TYDV
VPHL
WRQT
DNEL
RPEM
CGIG
TGDT
TQTD
CLQT
AYKV
AYSE
SWKV
SKYC
ARCR
RKWV
SHYR
KQID
WLRS
PEFC
PNKV
RRYP
PSVH
CFRE
WALV
PLGD
MPKW
EVCT
GTNG
YMKS
DRRV
ATYT
VRAY
RNDK
LRKW
QRGE
CPRA
SQSA
MMHC
PGIT
MSIR
QSSF
DIQR
IKWR
IVYR
RWTD
PCVR
TPAI

one-hybrid fitness for binding parS DNA, 0.259:
RLAF

one-hybrid fitness for binding parS DNA, 0.228:
RYIM

one-hybrid fitness for binding parS DNA, 0.334:
RVIN

one-hybrid fitness for binding parS DNA, 0.202:
RYQW

one-hybrid fitness for binding parS DNA, 1.04:
RMCG

— a collection of fitness landscapes (doi:10.1016/j.celrep.2020.107928)
